# Experimental data: PubChem BioAssay AID662 (National Center for Advancing Translational Sciences (NCATS), 2007)
# The whole screen tested about 71,000 compounds, of which about 1,800 (2.5%) were called active. This list was built around the results that the source calls inconclusive (neither active nor inactive); the mix of calls is not that of the screen. Calls come from the whole dose curve; as a rule, active = well fitted activation curve with a large enough effect in the signal ratio, with a control signal flat (not every such curve was filed as active); inconclusive = small, poorly fitted or top-dose-only effect, or effect the other way, or a change in a side signal; inactive = flat fitted curve, though single readings scatter; the % refers to the signal ratio. A potency beside an inconclusive call is a rough fit, not a confirmed value.
# Assay: Cell signaling CRE-BLA (Fsk stim); for activity change, negative = inhibition: % of control where 0% means no effect
# Conditions: CHO CRE-bla reporter (cAMP response element driving beta-lactamase), forskolin EC10, beta-lactamase ratio; activity change, negative = inhibition: at 38.2 µM (top of the series) unless noted
# How it was run: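 AC50 values, positive or negative, reflect shifts in EC10 NKH 477-induced CRE-bla reporter activity in CHO cells. Incubation lasted 3 h at 37 °C before CCF4 substrate (2 h, room temperature) and ratiometric 460/530 nm reading.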
# Potency is the fitted concentration of half-maximal effect; tags give direction and shape of the fitted curve.
Structure (SMILES),Potency,"activity change, negative = inhibition"
Cc1ccc(S(=O)(=O)n2nc(-c3cccnc3)nc2N)cc1,inactive,
COc1ccc2sc(NC(=O)c3ccco3)nc2c1,inactive,
O=C(c1ccncc1)N1CCC2(CC1)CN(c1ncccn1)C2,inactive,
Clc1cccc(Cl)c1C(Nc1nncs1)Nc1nncs1,,inconclusive: -1.26% [at 7.6 µM]
COc1ccc(-c2nn(C)c3sc(C(=O)N4CCOCC4)cc23)cc1OC,active: 10 µM,
O=C(CCCN1C(=O)c2ccccc2C1=O)Nc1ccccn1,inactive,
CCCCn1c(NC(=O)c2ccc(F)cc2)c(C#N)c2nc3ccccc3nc21,"inconclusive: 7.94 µM [rising, partial curve]",
COC(=O)CNC(=O)CCCCC(=O)NCC(=O)OC,,inconclusive: -9.43%
O=c1/c(=C\c2ccc3c(c2)OCO3)sc2n1CCCN=2,inactive,
O=C(CN(c1cccc(C(F)(F)F)c1)S(=O)(=O)c1ccccc1)N1CCOCC1,,inconclusive: 32.6% [at 7.6 µM]
O=C(COC(=O)c1ccccc1Oc1ccccc1)NCc1ccco1,inactive,
CCCCc1ccc(NC(=O)N[C@H](C(=O)O)C(C)CC)cc1 (stereo not given in full),,inconclusive: 3.79%
COc1ccc(S(=O)(=O)N2CCCC(C(=O)NC3CCCCC3)C2)cc1 (stereo not given),"inconclusive: 3.98 µM [falling, single point]",
CCOC(=O)C(Cc1c[nH]c2ccccc12)NC(=O)CNC(C)=O (stereo not given),inactive,
CCCN1Cc2cccc(C(=O)Nc3ccc4c(c3)OCO4)c2C1=O,"inconclusive: 10 µM [rising, partial curve]",
CC1=C(C(=O)Nc2ccccc2)C(c2ccco2)C(C#N)=C(SCc2ccccc2)N1 (stereo not given),,inconclusive: -14.2%
O=C(O)c1ccc2cccc(Cl)c2c1O,,inconclusive: -23.8%
CN(Cc1ccco1)c1cc(-c2cccc(NS(C)(=O)=O)c2)ncn1,inactive,
CCOC(=O)C1=C(C)NC(C)=C(C(=O)OC)[C@@H]1c1cccc(Cl)c1Cl,,inconclusive: 6.55% [at 17.1 µM]
CCN(CC)c1ccc(NC(=O)Nc2cccc(C(C)=O)c2)cc1,inactive,
Cc1ccccc1-n1c(=O)c2ccccc2n2c(=O)[nH]nc12,"inconclusive: 10 µM [rising, single point]",
COc1ccc(-c2nc(-c3ccc(NC(=O)c4ccc(Br)o4)cc3)no2)cc1OC,,inconclusive: 5.59%
COc1ccc(N(CC(=O)O)S(=O)(=O)c2cccnc2)cc1,"inconclusive: 20 µM [rising, single point]",

Structure (SMILES),Potency,"activity change, negative = inhibition"
O=C(O)c1cccc(Cn2cc(Cl)cn2)c1,,inconclusive: -11.5%
COc1cccc(NC(=O)C2C3C=CC4(O3)C2C(=O)N(C2CC2)C4C(=O)NC2CCCCC2C)c1 (stereo not given),,inconclusive: 25.4%
CC1=C/C(=N/O)C([C@H]2C=C(C)CC(C)(C)[C@@H]2O)C(C)(C)C1 (stereo not given in full),,inactive: -10.9% [at 7.6 µM]
O=c1oc2ccccc2n1CCn1c2ccccc2c2nc3ccccc3nc21,inactive,
C=CCn1cc(Cl)c(=O)n(CC=C)c1=O,,inconclusive: 29.9%
CCOc1ccc(OCC)c(C2C(C#N)=C(N)N(c3cccnc3)C3=C2C(=O)CC(C)(C)C3)c1 (stereo not given),inactive,
OCCNCCO,inactive,
O=C1CCCC2=C1C(c1ccco1)Nc1ccc(C(=O)c3ccccc3)cc1N2 (stereo not given),,inconclusive: -14%
O=C(CSc1nc(O)c(Cc2ccccc2F)c(=O)[nH]1)N1CCCCCC1,,inconclusive: 18.3%
COc1cc2c(cc1OC)CN(S(=O)(=O)c1ccc3c(c1)OCCO3)CC2,,inconclusive: -8.61%
CCCSc1nc2c(c(=O)[nH]c(=O)n2C)n1C,"inconclusive: 10 µM [rising, partial curve]",
COc1cc(C(Nc2ccc3c(c2)OCO3)C(=O)NC2CCCCC2)cc(OC)c1OC (stereo not given),,inconclusive: -5.44%
O=C(NCc1cccs1)C(Cc1ccccc1)NS(=O)(=O)c1cccs1 (stereo not given),,inconclusive: -17.8%
Cc1c(C(=O)N2CCCCC2)sc(N)c1C#N,inactive,
Oc1cccc(Nc2ccccc2)c1,inactive,
S=c1[nH]nc(Cc2ccccc2)n1-c1ccccc1,"inconclusive: 25.1 µM [rising, single point]",
CN1CCN(C(=O)c2ccc(-c3nn(C)c(=O)c4ccccc34)cc2)CC1,,inconclusive: 22.7%
Cn1c(=O)c2c(SCC(=O)N3CCN(c4ccccc4)CC3)nc(C3CC3)nc2n(C)c1=O,inactive,
CC(=O)N[C@@H](Cc1c[nH]c2ccccc12)C(=O)OCc1cc(C(F)(F)F)cc(C(F)(F)F)c1,inactive,
Cc1cc(NC(=O)CS(=O)(=O)c2cn(Cc3ccccc3Cl)c3ccccc23)no1,inactive,
CCOC(=O)C1CCN(S(=O)(=O)c2ccc(Br)c(OCC)c2)CC1,inactive,
O=C(c1coc2ccc(O)c(CN3CCOCC3)c12)C1CC1,,inconclusive: 31.1%
O=C(Nc1nnc(COc2ccc(Cl)cc2)s1)c1cccs1,inactive,

Structure (SMILES),Potency,"activity change, negative = inhibition"
CCOC(=O)c1cc(C(=O)OCC)cc(-n2c(C)cc(C(=O)CN3CCOCC3)c2C)c1,,inconclusive: 7.17%
O=S(=O)(c1cccs1)N1CCN(C/C=C/c2ccccc2)CC1,,inconclusive: 7.45%
Cc1nc(NCc2ccccc2)c2nc(-c3ccccc3)n(CCCN3CCCCC3C)c2n1 (stereo not given),inactive,
O=C(O)c1cnn(-c2ccccc2)c1-n1cccc1,inactive,
COc1ccc(CNc2nc(-c3cccc(NS(C)(=O)=O)c3)nc3ccccc23)c(OC)c1,,inconclusive: 16%
CC1CN(C(=O)CN2C(=O)c3ccccc3S2(=O)=O)CC(C)O1 (stereo not given),"inconclusive: 5.01 µM [falling, single point]",
O=C(Nc1ccc(N2CCN(C(=O)c3ccc(Cl)cc3)CC2)cc1)c1ccc(Br)o1,,inconclusive: -16.6%
CCOC(=O)OCC,inactive,
CCOC(=O)c1sc(=N)n(-c2ccc(OC)cc2)c1C,"inconclusive: 12.6 µM [rising, partial curve]",
O=C(c1cccc(F)c1)N1CCC2(CC1)CN(c1ccncc1)C2,inactive,
COc1cccc(Cn2c(=O)c(C)nc3cnc(N(C)C)nc32)c1,active: 12.6 µM,
CN1CCN(c2ccc(NC(=O)Cc3ccccc3)cc2)CC1,,inconclusive: 3.88%
COC(=O)CCC(=O)Nc1ccc(S(=O)(=O)N2CCCCCC2)cc1,,inconclusive: 2.67%
Cc1ccc(C2SCC(=O)N2Cc2cn3ccsc3n2)o1 (stereo not given),inactive,
CCOc1ccc2ccccc2c1C(=O)N[C@@H]1C(=O)N2[C@@H]1SC(C)(C)[C@@H]2C(=O)O,,inconclusive: -19.4% [at 17.1 µM]
N#Cc1cnn(-c2ccccc2)c1N,,inconclusive: 18.3%
C=C(C)COc1ccc2c(C)c(CC(=O)OC)c(=O)oc2c1C,"inconclusive: 12.6 µM [rising, partial curve]",
C/C=C/C=C/C(=O)O,inactive,
COc1cc(-c2nnc(SCC(=O)OC3CCCCC3)o2)cc(OC)c1OC,"inconclusive: 12.6 µM [rising, single point]",
COc1cccc(C2=NOC(C(=O)Nc3cccnc3)C2)c1 (stereo not given),"inconclusive: 0.126 µM [falling, full curve, poor fit]",
Cc1cc(N)ccc1-n1c(C)ccc1C,,inconclusive: -6.04%
COc1ccc(-n2c(SCc3nnc(-c4ccccc4)o3)nnc2-c2ccccc2)cc1,inactive,
COC(=O)Nc1ccc(S(=O)(=O)N2CCCc3ccccc32)cc1,,inconclusive: 13.5%

Structure (SMILES),Potency,"activity change, negative = inhibition"
BrC/C=C/CBr,inactive,
CCn1c(SCC(=O)NCCc2ccc(F)cc2)nnc1-c1cccs1,inactive,
CC(C)NC(=O)N1CCCC2(CCN(S(=O)(=O)c3ccccc3)CC2)C1,inactive,
Cc1ccc(S(=O)(=O)N2CCN(S(=O)(=O)N(C)C)CC2)cc1,"inconclusive: 5.01 µM [rising, single point]",
Cn1c(=O)c(C(=O)NC2CCCCCCC2)c(O)c2ccccc21,"inconclusive: 7.94 µM [rising, partial curve]",
CCOC(=O)CC(=O)CSc1ccc2nnc(-c3ccccc3)n2n1,"inconclusive: 10 µM [rising, single point]",
CC(C)CCN1CC(C(=O)NCc2ccccc2)CC1=O (stereo not given),"inconclusive: 25.1 µM [rising, single point]",
Cc1ccc(-c2nc(CS(=O)(=O)CC(=O)N3CC(C)CC(C)C3)c(C)o2)cc1 (stereo not given),inactive,
O=C(c1ccc(Cl)cc1)c1ccc(OCC(O)CN2CCOCC2)cc1 (stereo not given),inactive,
N#C/C(=C\c1c[nH]c2ccccc12)C(=O)c1ccc(O)c(O)c1,inactive,
COC(=O)c1ccc(OC(=O)c2ccc(OCc3c(C)noc3C)c(OC)c2)cc1,inactive,
C=CCn1c(SCCC(=O)O)nnc1-c1cccs1,inactive,
Cc1nc2ccc(Nc3nc4cc(S(=O)(=O)N5CCOCC5)ccc4o3)cc2s1,active: 12.6 µM,
Cc1ccc2cccc(NC(=O)c3ccc(Br)o3)c2n1,"inconclusive: 12.6 µM [rising, single point]",
CCCCOc1ccc(-c2ncc(Cl)cn2)cc1,"inconclusive: 0.631 µM [rising, partial curve]",
C=CCOc1ccccc1/C=N/O,inactive,
NCCCNCCCCN(CCCN)/[N+]([O-])=N/O,,inconclusive: -3.29%
O=C(NC1CCCCC1)c1cnn2c(C(F)(F)F)cc(-c3ccco3)nc12,active: 7.94 µM,
CC(=O)c1ccc(N2CCN(C(=O)c3ccc(NC(=O)C4CCCO4)cc3)CC2)cc1 (stereo not given),,inconclusive: -6.71%
CC1=NN(c2ccccc2)C(=O)C1,"inconclusive: 7.94 µM [falling, partial curve, poor fit]",inconclusive: -18.4%
